Reference: PubChem BioAssay AID1345082 (National Center for Advancing Translational Sciences (NCATS), 2018)
About 4,000 (4.3%) of roughly 94,000 compounds were called active. The inconclusive results got no clear call from the source; some entries with a clear call stand among them for comparison. The call rests on the fitted dose curve; in most records, active means well fitted inhibition curve with a large enough effect; inconclusive means small, poorly fitted or top-dose-only effect; inactive means no such curve, though single readings can be large or run the other way. Potencies beside an inconclusive call are fits to weak or partial responses and may not hold up.

Experiment: Cytotoxic Profiling in NIH 3T3 Cell Line of Diverse Libraries Using Quantitative High-Throughput Screening; further: nearly all actives have a fitted effect of over 55% in size
Conditions: NIH 3T3 viability, CellTiter-Glo ATP luminescence, 48-72 h; activity change, negative = cytotoxicity: at 96.7 µM (top of the series); series mostly up to 96.7 µM
Outline: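 Cytotoxicity was measured by CellTiter-Glo ATP luminescence after 48 or 72 h compound exposure at 37 °C. Mouse NIH 3T3 fibroblasts were seeded at 400 cells/well and dosed by 23 nL pin transfer.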
On the % scale 0 is the no-effect control and ±100 the full control effect; potency means the concentration at half of the fitted maximal effect; tags describe the fitted curve by direction and shape.

| SMILES | activity change, negative = cytotoxicity | Potency | outcome |
| --- | --- | --- | --- |
| COC(=O)C1=C(C)N=C2SC=C(CC(=O)NC3CC3)N2C1c1cccc(OC)c1 (stereo not given) | inactive: -4.11% | – | – |
| COc1ccc2cc(C3CN(C(=O)c4ccc(C)cc4OC)CCO3)ccc2c1 (stereo not given) | – | active: 44.7 µM | – |
| CCNC(=O)c1c(C)oc2c1CN(Cc1ccc(Br)o1)CC2 | – | inconclusive: 50.1 µM [inhibitor, partial curve, poor fit] | – |
| Cc1ccc(C(=O)N2CCN(c3cc(-c4ccc(Cl)cc4)[nH]n3)CC2)c(C)c1 | – | inconclusive: 35.5 µM [inhibitor, partial curve, poor fit] | – |
| Cc1nc(N2CCN(C(=O)Cc3ccccc3Cl)CC2)cc(C(F)(F)F)n1 | – | inconclusive: 50.1 µM [inhibitor, partial curve, poor fit] | – |
| COc1ccccc1OCCNC(=O)[C@H]1CCC[C@H]1NC(=O)c1cnc(C)cn1 | – | – | inactive |
| O=S(=O)(c1ccc(F)c(F)c1)N1CCC(C2CCNC2)CC1 (stereo not given) | inactive: -12.6% | – | – |
| COc1ccccc1Nc1ccnc(N2CCC[C@H]2C(=O)NC2CCCCC2)n1 | – | inconclusive: 50.1 µM [inhibitor, partial curve, poor fit] | – |
| CCC(=O)N1CCC(Oc2ncccc2C(=O)N(C)C)C1 (stereo not given) | inactive: 1.04% | – | – |
| Cc1ncsc1C(=O)N1CC(CNC(=O)Cc2ccccc2)C2(C1)CN(c1ccccc1)C2 (stereo not given) | – | inconclusive: 50.1 µM [inhibitor, partial curve, poor fit] | – |
| Fc1ccccc1CN1CCOC[C@H]1c1ncc(-c2ccc(Cl)s2)[nH]1 | – | active: 89.1 µM | – |
| O=C1COc2ccc(-c3ccccc3F)nc2CN1Cc1ccccc1 | – | inconclusive: 89.1 µM [inhibitor, partial curve] | – |
| O=C(NCCN[S+](=O)([O-])c1cccc(C(F)(F)F)c1)c1cccc(-c2ccsc2)c1 | – | active: 39.8 µM | – |
| C[S+](=O)([O-])N1Cc2ccccc2OC2(CCN(C(=O)Cc3cccc(O)c3)CC2)C1 | inactive: -6.82% | – | – |
| O=C(NCc1ccccn1)c1ccc2nnc(Cc3ccc(Cl)cc3)n2c1 | inactive: -21.4% | – | – |
| Cc1nn(-c2ccccc2)c2c1C(C)N(C1CCN(C(=O)c3cccc(Cl)c3)CC1)C2=O (stereo not given) | – | inconclusive: 50.1 µM [inhibitor, partial curve, poor fit] | – |
| C=CCn1cc2c3c(cccc31)[C@H](CC(C)C)N[C@H](C(=O)NCCN(C)C)C2 | – | active: 35.5 µM | – |
| O=C(COc1ccccc1)N1CCC2(CC1)OCCN(CC1CCOCC1)C2=O | – | inconclusive: 100 µM [inhibitor, partial curve, poor fit] | – |
| COc1cccc(C(=O)N2CCC3(CC2)CCN(CCc2ccccc2)c2ccccc2O3)c1 | – | inconclusive: 50.1 µM [inhibitor, partial curve, poor fit] | – |
| O=C(Cc1c[nH]c2ncc(-c3ccccc3)cc12)Nc1ccc(Cl)cc1 | – | inconclusive: 56.2 µM [inhibitor, partial curve, poor fit] | – |
| Cc1nc2ncccn2c1C(=O)N1CCC(c2[nH]ncc2-c2ccccc2)CC1 | – | inconclusive: 50.1 µM [inhibitor, partial curve, poor fit] | – |
| Cc1cccc(-c2cccc(NC(=O)C3CCCN(Cc4cnc(C)nc4)C3)c2)c1 (stereo not given) | – | inconclusive: 39.8 µM [inhibitor, partial curve, poor fit] | – |

| SMILES | activity change, negative = cytotoxicity | Potency | outcome |
| --- | --- | --- | --- |
| CC(C)C(=O)N1Cc2ccccc2CC2(CCCN2Cc2ccncc2)C1 (stereo not given) | inactive: -8.43% | – | – |
| Cn1ncc2c(C(=O)NCc3cccnc3)cc(-c3cccc(C(F)(F)F)c3)nc21 | – | inconclusive: 11.2 µM [inhibitor, full curve] | – |
| O=C(NCc1ccccn1)c1ccc2nnc(-c3cc(C(F)(F)F)cc(C(F)(F)F)c3)n2c1 | inactive: -22.8% | – | – |
| Cc1ccc(CN(C(=O)c2ccco2)c2ccc(CC(=O)NC(C)C)cc2)cc1 | – | inconclusive: 50.1 µM [inhibitor, partial curve, poor fit] | – |
| COc1ccc(-n2c(=O)c(C(=O)NCc3ccc(F)cc3)nc3cccnc32)cc1 | – | inconclusive: 50.1 µM [inhibitor, single point] | – |
| COc1ccc(C(=O)N2CCN(C(=O)c3nnn4c3COC(c3ccc(Cl)cc3)C4)CC2)c(C)c1 (stereo not given) | – | inconclusive: 44.7 µM [inhibitor, partial curve, poor fit] | – |
| CN1CCC(Cn2ccc3c(N4CCOCC4)nc(-c4cccc(N5CCOCC5)c4)cc32)CC1 | – | active: 31.6 µM | – |
| c1ccc(CN2CC[C@H](c3nnc(Cc4c[nH]c5ccccc45)o3)C2)cc1 | – | inconclusive: 100 µM [inhibitor, partial curve, poor fit] | – |
| CN(Cc1ccccc1)C(=O)C1COC2(CCN(C(=O)CC(C)(C)C)CC2)N1C(=O)c1ccccc1 (stereo not given) | inactive: -27.4% | – | – |
| O=C(NCc1ccccc1)c1ccccc1OC1CN(Cc2cccc(F)c2)C1 | – | inconclusive: 28.2 µM [inhibitor, full curve, poor fit] | – |
| O=C(NCc1ccc(F)cc1F)C1CCCN(c2cn[nH]c(=O)c2)C1 (stereo not given) | inactive: -19.7% | – | – |
| O=C(CNC(=O)c1cccc(-c2ccc(C(F)(F)F)cc2)c1)NCc1ccccc1 | – | inconclusive: 22.4 µM [inhibitor, full curve, poor fit] | – |
| COc1cccc(C(=O)N2CCC(c3nn(-c4ccc(Cl)cc4)c(=O)[nH]3)CC2)c1 | inactive: -25.2% | – | – |
| O=C(c1ccc2oc(-c3cccc(F)c3)nc2c1)N1CCCCC1CCO (stereo not given) | – | inconclusive: 50.1 µM [inhibitor, partial curve, poor fit] | – |
| O=C(c1ccc(OC2CCN(C(=O)c3ccc(F)cc3)CC2)nc1)N1CCOCC1 | – | inconclusive: 50.1 µM [inhibitor, partial curve, poor fit] | – |
| O=[S+]1([O-])NC2(CCCN(Cc3ccsc3)C2)CNc2ccccc21 (stereo not given) | inactive: -4.32% | – | – |
| O=C(NC1C[C@H]2CC[C@@H](C1)N2C(=O)CCC1CCCC1)c1ccncc1 (stereo not given in full) | inactive: -22.2% | – | – |
| COc1cccc(CCC(=O)N2CC(F)(F)C[C@H]2c2nc(C)no2)c1 | inactive: -11.6% | – | – |
| CCCC(=O)N1Cc2ccccc2CC2(CCCN2CCC)C1 (stereo not given) | – | inconclusive: 79.4 µM [inhibitor, partial curve, poor fit] | – |
| Cc1cc(C)n(-c2ccc(F)cc2CN2CCCC(CO)(Cc3ccccc3)C2)n1 (stereo not given) | – | inconclusive: 56.2 µM [inhibitor, partial curve, poor fit] | – |
| O=C(c1ccccc1Cl)N1CCC(C(=O)N2CCC(c3nc4ncccc4[nH]3)C2)CC1 (stereo not given) | inactive: -11.3% | – | – |
| CC(=O)Nc1ccc(NC(=O)Cn2nc3c(cc2=O)CCCCC3)cc1 | – | – | inactive |

| SMILES | activity change, negative = cytotoxicity | Potency | outcome |
| --- | --- | --- | --- |
| O=C(CCc1c[nH]c2ccccc12)N1CCC(Cc2nc(-c3ccncc3)n[nH]2)CC1 | – | inconclusive: 50.1 µM [inhibitor, partial curve, poor fit] | – |
| Cc1nnc2ccc(N3CCCN(C(=O)C(C)C)CC3)nn12 | inactive: -12.4% [at 138 µM] | – | – |
| O=C(NCc1cccc(Cl)c1)c1nc2sccn2c1-c1ccccc1 | – | inconclusive: 50.1 µM [inhibitor, partial curve, poor fit] | – |
| O=C(NCCC1CCN(C(=O)Nc2cc(F)cc(F)c2)CC1)c1ccccn1 | – | inconclusive: 35.5 µM [inhibitor, partial curve, poor fit] | – |
| CCN1CCN(CCNC(=O)c2cc(-c3ccc(Cl)cc3)cn2CC)CC1 | – | active: 20 µM | – |
| O=C(Nc1ccc(F)c(F)c1)c1cc2n(n1)CC(c1ccc(Cl)cc1)OC2 (stereo not given) | – | inconclusive: 70.8 µM [inhibitor, single point] | – |
| Cn1ncc2c(C(=O)N3CCC(c4ccccc4)CC3)cc(-c3ccccc3F)nc21 | – | inconclusive: 44.7 µM [inhibitor, partial curve, poor fit] | – |
| O=C(CCn1ccn2nc3c(c2c1=O)CCCC3)Nc1ccc(Cl)c(C(F)(F)F)c1 | – | inconclusive: 44.7 µM [inhibitor, partial curve, poor fit] | – |
| COc1ccc(N2CC(c3noc(-c4ccc(OC(F)(F)F)cc4)n3)CC2=O)cc1 (stereo not given) | – | inconclusive: 50.1 µM [inhibitor, single point] | – |
| O=C(Cc1c[nH]c2ncc(-c3cccc(CO)c3)cc12)NCc1cccnc1 | – | inconclusive: 44.7 µM [inhibitor, partial curve, poor fit] | – |
| C=CCOc1c(OC)ccc2c1CN(C1CC1)C(=O)CCN2CC(O)COc1ccc(OC)cc1 (stereo not given) | – | inconclusive: 50.1 µM [inhibitor, partial curve, poor fit] | – |
| O=C(Nc1cccc(C(F)(F)F)c1)c1cc(-c2ccc[nH]2)n[nH]1 | inactive: -2.96% | – | – |
| O=C(O)c1ccc(CN2C[C@H](O)C[C@H]2c2nc(-c3ccc4c(c3)OCO4)no2)cc1 | inactive: -14.1% [at 174 µM] | – | – |
| COc1ccc(CNC(=O)[C@@H]2CCC[C@@H](NC(=O)c3nc4ccccc4s3)CN(C)C(=O)C2)cc1 | – | inconclusive: 56.2 µM [inhibitor, partial curve, poor fit] | – |
| O=C(NCCc1ccncc1)c1cccnc1OC1CCNCC1 | – | – | inactive |
| CCn1ncc(NC(=O)Cn2ncc3cc(-c4ccc(F)cc4F)ccc32)n1 | – | inconclusive: 10 µM [inhibitor, full curve, poor fit] | – |
| CC(C)Cc1nc2nccc(-c3cccs3)n2n1 | – | inconclusive: 50.1 µM [inhibitor, partial curve, poor fit] | – |
| CN(Cc1ccccc1C(F)(F)F)C(=O)c1ccc(F)cc1 | inactive: -20.8% [at 138 µM] | – | – |
| COc1ccccc1NC(=O)Cn1c(=O)n(-c2ccc(F)cc2)c(=O)c2c1cc(C)n2C | – | active: 31.6 µM | – |
| CCOCCNC(=O)C1CCN(c2nccc(Nc3ccc(C)cc3)n2)CC1 | – | inconclusive: 44.7 µM [inhibitor, partial curve, poor fit] | – |
| Cc1cc(C(=O)N2CCCCC2c2noc(COc3ccc(F)cc3)n2)nn1C (stereo not given) | – | inconclusive: 44.7 µM [inhibitor, partial curve, poor fit] | – |
